Read counts are not given, so values of variants with three or more changes are uncertain.

B1: LINE1-mini (parent)
chain: GGCAGAGCUCAACACAGCGUGGCAAAGUGGCUGUGGCUAGACUGCC

The variants in this data set derive from B1. The data set can be described thus: self-cleavage, relative activity (ratio to wild type); higher = more cleavage; in vitro, sequencing; the parent is a self-cleaving ribozyme.
As to GGCACAGCUCAACACUGCGUGGCAAAGUCGCUGUGGCUAGAUUGCC [G5C A16U G29C C42U], the self-cleavage was found to be 0.03. As to GGCACAGCUCAACACUGCGUUGCAAAUUGGAUGUGGCUAGACUGCC [G5C A16U G21U G27U C31A], the self-cleavage was 0.02.

Turning to GGCACAGCUCACCACAGCGUGGCAUAGUGGCUGUGGCUAGACUGCC [G5C A12C A25U], the self-cleavage was 0.01. The figure for GGCACAGCUCAACACAGCGUGGCAAAGUGGCUGUGGCUGGACUGCA [G5C A39G C46A] is 0.05. For the variant GGCACAGUUCAACACAGCGUGAAAAAGUGGCUGUGGCUAGACUGCC [G5C C8U G22A C23A], the self-cleavage stood at 0.06. The figure for GGCACAGCUCAACACAGCGUGGCAUAUUGGCUGUGGCUAGACUGCC [G5C A25U G27U] is 0.04; for GGCACAGCUCAACACGGCGUGGCAAAGUGGCUUUGGCUAGACUGGC [G5C A16G G33U C45G] it is 0.01. The figure for GGCACAGCUCAACACAGCGUGGCUAAGGGGCUGUGGCUAGACUGCC [G5C A24U U28G] is 0.05; for GGCACAGCUCAACACUGGGUGGAAAUGUGGCUGUGGCUAGACUGCC [G5C A16U C18G C23A A26U] it is 0.02; for GGCACAGAUCAACACAGCGUCGCAAAGUGGCUGUGGCUAGCCUGCC [G5C C8A G21C A41C] it is 0.16. In the case of GGCACAGCUCAACGCAGCGUGGCAAAGUCGCUGUGGCUAGACUGCC [G5C A14G G29C] it was 0.01; in that of GGCACAGCUCAACACCGCAUGGCAAAGUGGCUGUGGCUUGACUGCC [G5C A16C G19A A39U], 0.02. Regarding GGCACAGGUCAACACAGCGUGGCACAGUAGCUGUGGAUAGAUUGCC [G5C C8G A25C G29A C37A C42U], the self-cleavage was found to be 0.03. The figure for GGCACAGCUCAACACAGCGUGGCAAGGUGGCUGUGGCUAGACUACC [G5C A26G G44A] is 0.03; for GGCACAGCUCAACUCAGCGUGGCAAAGUGGCUGUGGCUAUACUGCC [G5C A14U G40U] it is 0.05; for GGCACAGGUCAACUCAGUGUAGCAAAGUGGCUGUGGCUAGUCUCCC [G5C C8G A14U C18U G21A A41U G44C] it is 0.03. Turning to GGCACAGCUCUACACAGCGUGGCAAAGUGGCUGUGGCUAGACUGAC [G5C A11U C45A], the self-cleavage was 0.04. Regarding GGCACAGUUCAACACAGCGUGGCAAAGUGGCUUUGGCUAGGCUGCC [G5C C8U G33U A41G], the self-cleavage is 0.16. In the case of GGCACAGCUCAACACAGCGUGGCAGAGUGCCUGUGGCUAGCCUGCC [G5C A25G G30C A41C] it was 0.04; in that of GGCACAGCUCAACACCACGUGGCAAAGUGGCUGUGGCUAGACUGCC [G5C A16C G17A], 0.04; in that of GGCACAGCUCAACACAGCGUGGCAAAGUGGCUGUGGCUAGCCCGCC [G5C A41C U43C], 0.02.

With GGCACAGCUCAACACAGCGUGGCAAAGUGGCUGUGGCUAGCAUGCC [G5C A41C C42A], the self-cleavage amounted to 0.01. With GGCACAGUUCAACACAGCGUGCCAAAGUGGCUGUGGCUAGAGUGCC [G5C C8U G22C C42G], the self-cleavage was determined as 0.2. For the variant GGCACAGCUCAACACUGCGUGGCAAAGUGGCUGUGGCUAGACUGCG [G5C A16U C46G], the self-cleavage is 0.01. Regarding GGCACAGAUCAACACAGCGUGGGAAAGUGGCUGUGGCUAGACUGCC [G5C C8A C23G], the self-cleavage is 0.11. On to GGCACAGCUCAACCCAGCCUGGCAAAGUGGCUGUGGCGAGACUGCC [G5C A14C G19C U38G], for which the self-cleavage was found to be 0. Regarding GGCACAGCUCAACACAGCGUGGCAACGUGGCUAUGGCUAGAUUGCC [G5C A26C G33A C42U], the self-cleavage is 0.06. For GGCACAGCUCAACGCAGCGUGGCAAAGUGGCUGUGGCUAGCCUGCA [G5C A14G A41C C46A], the self-cleavage came to 0.38. For GGCACAGCUCAACGCAGCGUGGCAAAAUGUUUGUGGCUAGACUGCC [G5C A14G G27A G30U C31U], the self-cleavage turned out to be 0.08. For GGCACAGGUCAACACUGCGUGGCAAAGUUGCUGUGGCUAAAGUGCC [G5C C8G A16U G29U G40A C42G], the self-cleavage was 0.02. Take GGCACAGCUCAGCGCAGCGUGGCAAAGUGGCUGUGGCUAGUCUGCC [G5C A12G A14G A41U]: the self-cleavage is 0.02. Take GGCACAGCUCAACCCAGCGUGGCAACGUGGCUGUGGCUAGACUGGC [G5C A14C A26C C45G]: the self-cleavage came out at 0.02.

Consider GGCACAGCUCUACACAGCGUGGCAAAGUGUCUGUGGCUAGACUGCC [G5C A11U G30U], for which the self-cleavage worked out at 0.05. GGCACAGGUGAACACAGCGUGGCAAAUUGGCUGUGGCUAGACUGCC [G5C C8G C10G G27U]: the self-cleavage amounted to 0.03.

As to GGCACAGCUCAGCACAGCGUGGCAAAGGGGCUGUGGCUAGACUGCC [G5C A12G U28G], the self-cleavage came out at 0.

Consider GGCACAGCUCAACACGCCGUGGAAAAGUAGCUCUGGCUAGACUGCC [G5C A16G G17C C23A G29A G33C], for which the self-cleavage is 0.03.

On to GGCACAGCUCAACACAGCGUGGCAAAGUGGCUGUGGCUAGGCUGUC [G5C A41G C45U], for which the self-cleavage came to 0.04. With GGCACAGCUCAACACUGCUAGCCAAAGUGGCUGUGGCUAGACUGCC [G5C A16U G19U U20A G22C], the self-cleavage came to 0.03.

As for GGCACAGGUCAACACAGCGUGGCAAAGUAGCUGUGGCUAGACUGCC [G5C C8G G29A], the self-cleavage was found to be 0.2. In the case of GGCACAGCUCAACACGUCACGGCAAAGUGGCUGUGGCUAGACUGCC [G5C A16G G17U G19A U20C] it was 0.04. GGCACAGGUCAACACAGCGUGGAAAAAUGGCUGUGGCUAGACUUCC [G5C C8G C23A G27A G44U]: the self-cleavage was determined as 0.03. For GGCACAGGUCAACACAGCGUGGCCAAGAGGCUGUGGCUAGACUGCC [G5C C8G A24C U28A], the self-cleavage came to 0.07. The figure for GGCACAGACCAAUACAGAGUGGCAAAGUGGCUUUGGCUAGACUGCC [G5C C8A U9C C13U C18A G33U] is 0.03; for GGCACAGUUCAACACAGCGUUGCAAAGUGGCUAUGGAUAGACUGCC [G5C C8U G21U G33A C37A] it is 0.02; for GGCACAGAUCAACACAGCGUGGCAAAGUGGCUGUGGCUAGACCGCC [G5C C8A U43C] it is 0.04. Turning to GGCACAGCUCAACUCAGCGUAGCAAAGGGGCUGUGGCUAGACUGCC [G5C A14U G21A U28G], the self-cleavage came to 0.01. GGCACAGGUCAACACAGCGAGGGAACGUGGCUGUGGCUGGACUGCC [G5C C8G U20A C23G A26C A39G]: the self-cleavage worked out at 0.29. The figure for GGCACAGCUCAACACCGCGUGGCAAAGUGGCUGUGGCUAUACUGCC [G5C A16C G40U] is 0.06; for GGCACAGCUCAACACAGCGUGGCCAAGUGGCUGUGGCUAGACUGCG [G5C A24C C46G] it is 0.06; for GGCACAGCUCAGCACAGCGUGGCAAAGUGUCUGUUGCUAGACUGCU [G5C A12G G30U G35U C46U] it is 0.04.

Regarding GGCACAGGUCAAAACAGCGUGGCAAAGUGGUUAUGGCUAGACUGCC [G5C C8G C13A C31U G33A], the self-cleavage turned out to be 0.07. In the case of GGCACAGAUCAACACAACGUGGCAAAGUUGCUGUGGCUAGAAUGCC [G5C C8A G17A G29U C42A] it was 0.25; in that of GGCACAGCUCAACACAGCGUGGCAUAGUGGCUGUGGAUAGACUGCC [G5C A25U C37A], 0.11. Take GGCACAGCUCAACACAGCGUGGCUAAGUGGCUGUGGGUAGACUGCC [G5C A24U C37G]: the self-cleavage was 0.01. Turning to GGCACAGCUCAACACGGCGUGGCAAAGUGACUGUGGCUAGAAAGCC [G5C A16G G30A C42A U43A], the self-cleavage amounted to 0.02. The figure for GGCACAGCUCCACACAGCGGGGCAAAGUGGAUGUGGCUAGACUGCC [G5C A11C U20G C31A] is 0.03.

For the origin of these results see the RNAGym collection of RNA variant scans (doi:10.7554/elife.90254).
